From patent publication US20070092504A1 (Pfizer, published 2007)

B1: human CTLA4-Fc (human Ig gamma 1) (Fc fusion)
chain: not shown
notes: also called CTLA4-Ig; hCTLA4

Key:
[1] = target: B1; assay: flow cytometry on CHO-mB7-4 cells
[2] = target: T1, human PD-L1.Ig (extracellular region of human PD-L1 fused to hinge-CH2-CH3 of murine Ig gamma 2a) (human; murine, UniProt P01863 98-330 = IgG part, limits assumed); assay: BIACORE, hCTLA-4.Ig immobilised, soluble human PD-L1.Ig injected
T1 construct: domain: hinge-CH2-CH3; also called PD-L1-Fc; hPD-L1.Fc

Row | Binder | binding result [1] | binding result [2]
1 | murine PD-L1 expressed on transfected cells (ligand, also called mouse PD-L1; mPD-L1) not shown | no binding | –
2 | B1 | – | no binding
